Measured values taken from PMC2839002 (Chromosoma, 2009).

What was measured:
His-T7-SmB′ = His-T7-SmB′ (UniProt P14678); experiment: pull-down
His-T7-SMN = His-T7-SMN (UniProt Q16637); experiment: pull-down

B1: GST-C214 S489D (domain or fragment)
chain: not shown
**Q.** Does B1 bind (His-T7-SmB′)?
**A.** binds

**Q.** Does B1 bind (His-T7-SMN)?
**A.** binds
